The campaign covered roughly 310,000 compounds. About 2,200 (0.71%) showed an effect of 50% or more. Effects have a minus sign here. This is one part of the list.
target: human ether-à-go-go-related gene (hERG) potassium channel (human, UniProt Q12809); experiment: primary screen, population patch clamp on CHO cells stably expressing hERG
Sequence (Q12809 whole entry, looked up): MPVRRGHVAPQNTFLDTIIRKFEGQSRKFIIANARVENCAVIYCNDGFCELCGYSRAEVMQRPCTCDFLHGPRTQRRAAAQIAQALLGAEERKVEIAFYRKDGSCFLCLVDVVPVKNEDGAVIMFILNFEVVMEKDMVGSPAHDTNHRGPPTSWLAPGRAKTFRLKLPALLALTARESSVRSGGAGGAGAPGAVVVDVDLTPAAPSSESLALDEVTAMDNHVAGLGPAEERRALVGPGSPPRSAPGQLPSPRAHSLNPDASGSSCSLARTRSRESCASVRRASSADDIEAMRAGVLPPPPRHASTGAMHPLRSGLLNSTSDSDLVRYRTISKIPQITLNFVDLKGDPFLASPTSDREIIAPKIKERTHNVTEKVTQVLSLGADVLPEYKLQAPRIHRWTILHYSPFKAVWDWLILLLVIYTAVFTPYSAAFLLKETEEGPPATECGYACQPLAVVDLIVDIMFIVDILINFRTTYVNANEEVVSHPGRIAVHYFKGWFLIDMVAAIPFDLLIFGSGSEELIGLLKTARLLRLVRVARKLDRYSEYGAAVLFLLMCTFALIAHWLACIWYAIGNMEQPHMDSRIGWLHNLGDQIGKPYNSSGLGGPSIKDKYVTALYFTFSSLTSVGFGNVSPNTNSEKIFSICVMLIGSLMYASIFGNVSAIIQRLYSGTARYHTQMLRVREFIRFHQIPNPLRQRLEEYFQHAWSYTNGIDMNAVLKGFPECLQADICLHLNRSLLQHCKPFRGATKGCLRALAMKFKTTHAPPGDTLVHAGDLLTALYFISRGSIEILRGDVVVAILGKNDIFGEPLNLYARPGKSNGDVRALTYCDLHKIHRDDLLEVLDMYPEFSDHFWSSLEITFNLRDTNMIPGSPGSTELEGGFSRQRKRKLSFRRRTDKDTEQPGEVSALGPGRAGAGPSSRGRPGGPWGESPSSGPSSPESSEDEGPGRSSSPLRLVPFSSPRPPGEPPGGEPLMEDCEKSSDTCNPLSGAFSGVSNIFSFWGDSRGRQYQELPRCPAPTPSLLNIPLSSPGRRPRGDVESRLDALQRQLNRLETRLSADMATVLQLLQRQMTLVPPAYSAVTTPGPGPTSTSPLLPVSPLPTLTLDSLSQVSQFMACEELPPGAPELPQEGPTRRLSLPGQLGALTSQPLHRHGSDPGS

| SMILES | hERG current change (%, negative = inhibition) at 1uM [%] |
| --- | --- |
| COc1ccc(C(=S)N2CCN(c3cccc(Cl)c3)CC2)cc1 | 11.1 |
| Cc1cc(C)c2[nH]c(=O)c(C(c3nnnn3Cc3ccc4c(c3)OCO4)N3CCC(C)CC3)cc2c1 (centres unmarked) | 13.6 |
| COc1ccc(OC)c(/C=C/C(=O)NCCc2nc3ccccc3[nH]2)c1 | 3.74 |
| CCN(Cc1ccccc1)C(=O)CCS(=O)(=O)c1ccc2c(c1)CCN2C(C)=O | 13.5 |
| CC(C#N)(Nc1ccc(Cl)cc1)c1cccnc1 (centres unmarked) | 6.39 |
| Fc1ccc(-c2cn(-c3ccccc3)c3[n+]2CCS3)cc1.O.[Br-] | -8.42 |
| OCc1ccccc1CN1CCCCCC1 | -3.19 |
| CCOc1ccc(NC(=O)Nc2cccc(C(=O)O)c2)cc1 | 9.55 |
| COc1ccc(C(=O)NCc2c(C)oc(C)c2C(=O)O)cc1 | 12.2 |
| COc1ccc(CCNC(=O)CC2SC(=NCc3ccccc3)NC2=O)cc1 (centres unmarked) | 4.22 |
| O=C(NC(=S)N1CCCCCC1)c1cccc([N+](=O)[O-])c1 | 7.36 |
| O=C(NC(=S)Nc1ccc2[nH]c(=O)[nH]c2c1)c1ccccc1F | 18.3 |
| O=S(=O)(NCc1cccnc1)c1ccc(Br)c2ccccc12 | 7.97 |
| CCCCn1c(-c2ccco2)nc2oc3ccccc3c(=O)c2c1=O | -1.88 |
| O=C(CCC1CCCC1)Nc1cccc(Cc2ccncc2)c1 | -1.67 |
| CC1(C)NC(=O)N(CCCCSc2ccc(Cl)cc2)C1=O | -3.74 |
| Cc1nn(Cc2ccc(Cl)cc2)c2sc(C(=O)OCC(N)=O)cc12 | 6.37 |
| Cc1nn(C)cc1S(=O)(=O)N1CCCCC1C (centres unmarked) | 4.32 |
| O=C(OCC(=O)N1CCN(C(=O)c2ccco2)CC1)c1ccc(S(=O)(=O)N2CCCCC2)cc1 | -5.32 |
| CCOc1ccccc1NC(=O)CSc1ccccc1 | 12.3 |
| CCOc1ccc(N=C(NC#N)SC)cc1 | 10.5 |
| Cc1ccc2nc(-c3ccc(SCC(=O)O)nc3)[nH]c2c1 | 20.8 |

| SMILES | hERG current change (%, negative = inhibition) at 1uM [%] |
| --- | --- |
| CCC(C)(NC(=O)c1ccccn1)C(=O)NC1CCCC1 (centres unmarked) | 7.95 |
| O=C(O)CCN1C(=O)/C(=C/c2ccc(-c3nc4ccccc4s3)o2)SC1=S | -0.496 |
| Cc1cc(C(=O)OC(C)C(=O)Nc2nc(-c3ccccc3)cs2)c(C)o1 (centres unmarked) | 6.93 |
| O=C(Nc1nc2c(F)cccc2s1)c1ccc([N+](=O)[O-])o1 | 17.2 |
| COC(=O)c1ccc(CSc2nc(C(F)F)cc(C)c2C#N)o1 | 10.4 |
| COc1cc(N=Nc2cccc(S(N)(=O)=O)c2)c2ccccc2c1N | 13.9 |
| O=C(CCn1c(=O)oc2ccccc21)NCCCN1CCCC1=O | 8.38 |
| Cc1ccc(NC(=O)Cc2ccccc2)c(C)c1 | 14.3 |
| COc1ccccc1S(=O)(=O)NCc1ccc(C(=O)NC2CCC(O)CC2)cc1 (centres unmarked) | 6.97 |
| CC(OC(=O)/C=C/c1ccccc1)C(=O)Nc1cccc(C#N)c1 (centres unmarked) | 4.87 |
| CCc1c(C#N)c(N)nc(SCC(=O)OCc2ccccc2)c1C#N | 10.2 |
| CSc1cccc(NC(=O)CN(Cc2ccc(Cl)cc2)S(C)(=O)=O)c1 | -5.52 |
| O=C(NCCc1ccncc1)c1ccccc1F | 9.09 |
| COc1ccc(NC(=O)NNC(=O)c2ccc3ccccc3c2O)cc1OC | 16.5 |
| Cc1c(O)nc2ccccn2c1=O | 1.21 |
| COc1ccc(N2CCN(C(=O)COC(=O)CCOc3ccc(C)cc3)CC2)cc1 | 11.6 |
| Cc1c(Br)c([N+](=O)[O-])nn1CC(=O)Nc1ccccn1 | 2 |
| COc1cccc2sc(N)nc12 | 8.85 |
| CC(C)NC(=O)C1CCN(C(=O)C(C(=O)c2ccccc2)n2cc(Cl)ccc2=O)CC1 (centres unmarked) | 9.46 |
| CCN(CC)C(=O)CN(C#N)c1nc(NC(C)C)nc(NC(C)C)n1 | 10.5 |
| CCOC(=O)c1cc(-c2ccccc2)sc1NC(=O)CN1C(=O)c2ccccc2C1=O | 10 |
| C#CCNC(=O)C1=C[C@@H](c2ccc(Br)cc2)C[C@@H](OCc2ccc(CO)cc2)O1 | 16.4 |

Source: paper PMC4336329 (PLoS ONE, 2015)
